{"source": "PubChem BioAssay AID624417", "about": "(National Center for Advancing Translational Sciences (NCATS), 2012)", "note": "Hit rate of the full screen: of about 410,000 compounds, about 6,400 (1.6%) were called active. Inconclusive means that the source gave no clear call. Such entries were picked first, then a sample of the others. Calls come from the whole dose curve; as a rule, active = well fitted inhibition curve with a large enough effect; inconclusive = small, poorly fitted or top-dose-only effect; inactive = no such curve, though single readings can be large or run the other way. Potencies of inconclusive entries are left out as doubtful fits. % is set by controls: 0 for no effect and ±100 for the full control effect; potency is the fitted concentration of half-maximal effect; tags give direction and shape of the fitted curve."}
{"target": "Glucagon-like peptide 1 receptor (Homo sapiens) (UniProt P43220)", "sequence (P43220 whole entry, looked up)": "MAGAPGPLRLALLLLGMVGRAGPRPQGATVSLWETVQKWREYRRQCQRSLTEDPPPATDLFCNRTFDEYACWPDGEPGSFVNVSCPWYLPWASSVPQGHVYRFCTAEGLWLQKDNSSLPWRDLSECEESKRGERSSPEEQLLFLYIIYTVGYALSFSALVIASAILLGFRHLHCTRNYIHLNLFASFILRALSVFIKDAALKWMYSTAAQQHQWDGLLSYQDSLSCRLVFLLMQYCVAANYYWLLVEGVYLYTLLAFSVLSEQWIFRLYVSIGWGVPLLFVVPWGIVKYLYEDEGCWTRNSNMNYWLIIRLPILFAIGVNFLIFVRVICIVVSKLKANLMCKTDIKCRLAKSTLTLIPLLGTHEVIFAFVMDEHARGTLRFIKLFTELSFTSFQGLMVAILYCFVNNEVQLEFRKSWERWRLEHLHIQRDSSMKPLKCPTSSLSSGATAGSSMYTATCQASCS", "experiment": "qHTS of GLP-1 Receptor Inverse Agonists (Inhibition Mode); note: nearly all actives have a fitted effect of over 55% in size", "conditions": "HEK293 GLP-1R CRE-luciferase, luminescence, 24 h, GLP-1R form is constitutively active; activity change, negative = inhibition: at 38.3 µM (top of the series) unless noted", "method_in_brief": "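Using stably transfected HEK293 (constitutively active GLP-1R, cAMP-luciferase reporter), compounds were incubated 24 hr and luciferase measured by luminescence.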"}
{"molecule": "CCOc1ccc2nc(NC(=O)CSc3ccc(Cl)cc3)sc2c1", "Potency": "inconclusive [inhibitor, full curve, poor fit]"}
{"molecule": "CC(C)(O)C#Cc1ccc(N2C(c3ccsc3)=Cc3ccc(F)cc3C2c2c[nH]c3ccccc23)cc1", "note": "(stereo not drawn)", "Potency": "inconclusive [inhibitor, partial curve, poor fit]"}
{"molecule": "CCNC(=S)N/N=C(\\C)c1ccc(N2CCOCC2)cc1", "Potency": "inconclusive [inhibitor, single point]"}
{"molecule": "CSCCC(NC(=O)c1ccco1)C(=O)N1CCCC(C(F)(F)F)C1", "note": "(stereo not drawn)", "Potency": "inconclusive [inhibitor, single point]"}
{"molecule": "COc1cc2cc(CN(Cc3cccs3)C(=S)Nc3ccccc3)c(=O)[nH]c2cc1OC", "activity change, negative = inhibition": "inactive: 3.89%"}
{"molecule": "N#CC1=C(SCC(=O)c2ccc(Br)cc2)NC2=C(C(=O)CCC2)C1c1ccco1", "note": "(stereo not drawn)", "Potency": "inconclusive [inhibitor, partial curve, poor fit]"}
{"molecule": "Cc1cccc(C=CC(=O)c2ccc(Cl)cc2)c1", "Potency": "inconclusive [inhibitor, single point]"}
{"molecule": "CC(C)n1c(=O)c2oc3ccccc3c2n(CC(=O)Nc2ccccc2Cl)c1=O", "activity change, negative = inhibition": "inactive: 2.42%"}
{"molecule": "CCCCC1CCC(C(=O)Nc2ccc(S(=O)(=O)Nc3nccs3)cc2)CC1", "note": "(stereo not drawn)", "Potency": "inconclusive [inhibitor, single point]"}
{"molecule": "O=C(c1ccccc1)c1ccc(OCCCN2CCCCC2)cc1", "Potency": "inconclusive [inhibitor, partial curve, poor fit]"}
{"molecule": "CCN(CC)C(=O)C1CCN(Cc2ccc(OCc3ccccc3)cc2)CC1", "activity change, negative = inhibition": "inactive: -21.1%"}
{"molecule": "Cc1cccc(Nc2nc(N3CCCCC3)nc(N3CCCCC3)n2)c1", "Potency": "inconclusive [inhibitor, partial curve, poor fit]"}
{"molecule": "CCC/C=N/Nc1nc2ccccc2s1", "Potency": "inconclusive [inhibitor, partial curve, poor fit]"}
{"molecule": "Fc1ccc(CN2CCN(c3ncnc4scc(-c5ccccc5)c34)CC2)cc1", "Potency": "inconclusive [inhibitor, partial curve, poor fit]"}
{"molecule": "COc1ccc(C(=O)N(Cc2nc(-c3ccc(C)cc3)no2)C2CCCCC2)cc1OC", "Potency": "inconclusive [inhibitor, single point]"}
{"molecule": "Cc1cccc(C(=O)NCCNc2nc3cc(C)c(C)cc3cc2C)c1", "Potency": "inconclusive [inhibitor, single point]"}
{"molecule": "O=C(Nc1ccc2ncccc2c1)c1cccc(Br)c1", "activity change, negative = inhibition": "inactive: 14.6%"}
{"molecule": "c1ccc(CNc2nc(NCCc3ccncc3)c3sccc3n2)cc1", "Potency": "inconclusive [inhibitor, partial curve, poor fit]"}
